Reference: the supplement of paper PMC11417369
The other results are listed elsewhere or left out.

Each sequence was assayed on PfHDP1 homeodomain (GST-tagged) (assay: gcPBM binding intensity (ln(normalized median fluorescence intensity)); higher = stronger DNA binding).
Method in brief: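 Binding of GST-tagged P. falciparum DNA-binding domains, expressed in E. coli and used at about 25 μg on average, was carried out for 1 h in 1× PBS containing 1% milk, 0.2 mg/ml BSA, 0.5% salmon testes DNA and 0.03% Triton X-100. The target was an Agilent 4 × 180k array of primer-extended double-stranded 36-bp intergenic genomic probes plus negative controls, read with Alexa488 anti-GST antibody at 488 nm. Binding intensity is the highest Masliner-normalised natural-log median intensity across replicate spots of either probe orientation.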

Sequence	gcPBM binding intensity (ln)
TTTTTTTTTCTGAATTTATAATTCAAAAATATATAT [CACACA_negctrl_site300]	6.21
TTATATAACTTTTCTAGTACTTGTATAAATTCCTAC [XGTACX_site3685]	6.64
AAAAAAAAAGAAAAACGTACGTTTATTTAATATATA [XGTACX_site4018]	6.28
ATAATACCCATTATCTTACAACAAAATGCAAACAAA [CACACA_negctrl_site1037]	7.26
AACATAATATCATATACACACAAAAATATTGAAATA [CACACA_site2160]	6.81
AAGAACATATTATATACATGCATAATTCGATAGATT [TGCATGCA_site882]	6.38
AAAATTAGATTATGCACACACACTTAAAAATAATAA [CACACA_site1975]	10.1
TACTTATTTTTATAGCATTTCACGGAGGTAGTAATA [CACACA_negctrl_site468]	6.52
ATAATAAATCATCATATTACATTTATCTTTGTTGGA [CACACA_negctrl_site849]	6.46
AACTGTAATTTTATACGTACATAAATAATATTATAT [XGTACX_site4277]	6.5
AGCAGTTTTTTTTTTTTTTTTTTTTTTATTAAAAGC [XGTACX_negctrl_site392]	5.87
TTTATTATATGCACACGTACATATAATATATATATA [XGTACX_site4108]	10.8
TTTGCAACATATAAAAGTACAAATAATATATTTATT [XGTACX_site890]	6.76
AAGTGAAATAAAATATGTACATATATGTATATATAA [XGTACX_site4473]	6.57
TATATATAAAATGTATGTACATATTTATTTATATAG [XGTACX_site657]	6.11
TTTTTTCTTCGTGTATTAAGTCACAATAGGAAAAAA [GTGCAC_negctrl_site644]	6.44
AAAAAAAAAGAATGTGAACACACACCGTGAATATAA [CACACA_site8342]	6.57
ATCGGTATATTATTACATGAATAAACTTACACACAC [TGCATGCA_negctrl_site21]	7.44
TTGTATTAATAATTTTTTATATTATAGTTTATAATA [GTGCAC_negctrl_site130]	6.44
TATATATATAACATTGTACACACAAAGAAATAATAT [CACACA_site8998]	7.29
TGTATAATAAGGAAGAGTACAAGTAAATACACACAT [XGTACX_site2084]	7.72
TACATATATAAAAAAACACACACATATATATATATA [CACACA_site8315]	9.55

Sequence	gcPBM binding intensity (ln)
TGTATTTATAGACACACACACTTTCTTTTTTTAAGA [CACACA_site7010]	6.47
AACAATTAGAACTTTGCACACTTCTATATATTTTGT [CACACA_site674]	10.2
TATGTAAAATGTGTTTGTACTTATTTATTATATAAA [XGTACX_site2816]	6
ATTATAAATATCAGTGCACACATTTCTACGCAAAGT [CACACA_site4420]	9.79
AAGGAGCCTATGAACACACACATGTACAGATATTAA [CACACA_site6107]	6.49
TTTCTAAGAAAAAAAAAAAAAAAAAAAAAGATACAA [GTGCAC_negctrl_site525]	5.61
ATATTTATTTTAATTTTTCTATATAAACTATTATGA [CACACA_negctrl_site739]	6.19
AGGAAGGAAATAAATCAACACACATATATTATATAT [CACACA_site8678]	6.53
TATATATATTATATATGTACATATTGTATATTTTTG [XGTACX_site4564]	6.95
TTACAAAACACTTATACACACATATATATATATATA [CACACA_site2716]	9.46
TAATATATTAAAAATAGTACATAAGAAAAATAAGTA [XGTACX_site7957]	6.81
CAAAATTATCAGAATCGTACATTTTTAACATATAAT [XGTACX_site7909]	6.22
AAAACTATATTAATGTGTACACATCAAAATATTAAT [XGTACX_site6767]	6.86
ATATATTTTTATGTAGTGCATTTAAATAATAAATGC	8.54
ATTTTTTCCAATTCTTTACCTTAGAAAGGTGTTCAA [CACACA_negctrl_site1401]	6.25
ATTCTAAATAAATGTACACACAAAAATAAATGTATA [CACACA_site1732]	6.5
ATATATATATAATGAAGTACGAAAAAATAAGAAATG [XGTACX_site4001]	8.47
ACCTCATAATATTTAACACACAAAATTATATGTATG [CACACA_site1704]	6.73
TATCCTTATATTTGCACACACACACCCTAAAATGAA [CACACA_site1029]	10.6
TTTATATTTAAAAGGATGCACTACAAATTCTAAATA	7.36
TTATATTAAACAAACACACACATATAAATATAAATA [CACACA_site7174]	6.9
AAAACAAACAGACACACACACATATTTATATTTATA [CACACA_site7681]	6.68

Sequence	gcPBM binding intensity (ln)
AAGACAAATATGAAGAGTACATTTATATAAAAATTA [XGTACX_site5142]	6.29
CTACAATATCTTTAAAGTACTTTTATATAACTACCA [XGTACX_site6119]	6.66
GTAAATAAATAAATAAATAAATATATATATATATAT [CACACA_negctrl_site1737]	9.25
AATAAAAAAAAATTCACACAAAGTTAGATTAACTAT [CACACA_site4224]	5.97
AATGATCAGATATACACACACACAAAAAAAAAAAAA [CACACA_site7806]	6.36
AATTCACATGTGAACTAAAAGAATATTATATATATA [CACACA_negctrl_site1632]	7.5
AAATATATATATAGTACATGCAGTAGATAATTTAAT [TGCATGCA_site299]	6.86
ATTAGGTATTTTTTTTGTACATATTATATAATGTGA [XGTACX_site3815]	6.69
CACAAAAATTTATACACACACATATAAAATATAGAT [CACACA_site6218]	6.54
AGTTATTACACACAAACATGCATTAATATCAAAAAA [TGCATGCA_site63]	6.79
TTCACTATACAAAGGTGTACTTAATTTTGTCCCATT [XGTACX_site7483]	6.15
GTGTTGGGAAAAGGCATGCACTTTTTTTTTTTTTTT	7.04
ATGTATATGCAAACATGTACATATATAAACATATAT [XGTACX_site4159]	6.64
TTTTATTTTATTCAATTTTTACTTTTATAAAAATAT [GTGCAC_negctrl_site578]	6.48
AATATTAGGTTATGTAGTACATAACAATAATTATAC [XGTACX_site5733]	6.61
AAGGAATATGTATATACACACAGGTACATATTTATA [CACACA_site6344]	6.78
ATAAAGAATATAAATACACACTTAAATATATATTAT [CACACA_site6071]	6.37
TAAAATATACAAATTTGTACATATATATGTATGTAT [XGTACX_site1127]	7.14
TGCAGGTGTTATTCACGTACGCATTTGATTAAAAAA [XGTACX_site7743]	6.25
TAATTTTATATAAATTGTACAAAAATATTTTATTAA [XGTACX_site7166]	6.32
ATTAGAAAATAAAATAATAAATAAAATAAAAAAAAA [CACACA_negctrl_site409]	6.35
ATAAAAACATAAAAATGTACATATATATATATATAT [XGTACX_site7165]	9.3

Sequence	gcPBM binding intensity (ln)
TTTTTTTTTTTTGGTAGTACATAAATATTTTATGGA [XGTACX_site6851]	6.25
AGTGGGATTTTTAATTGTACATAAATAATATCATAA [XGTACX_site4163]	6.56
CATGTTATATATATATGTACTAAAAATATAATATAA [XGTACX_site1978]	6.32
AATAAGAATTAAAAATGTACAAAAAAATGTATTTAT [XGTACX_site8005]	6.44
AAGTATAAAATATTTTGTACTTAAAAAATTATATGG [XGTACX_site2180]	6.46
TATATATATTTTAACACACACATATATATATTTATA [CACACA_site2765]	6.71
AATATAAAATAGAAAAATGAAAAAAAAAAAAAGGGT [CACACA_negctrl_site1263]	6.91
TGTTTGATGGTACACGTACACACCTTGCAAATATTT [CACACA_site888]	7.12
CAATAAATAATAAATACATGCAAGTATGAAGATATA [TGCATGCA_site859]	6.82
ATATAAAATAAAAAAAAAAAAAAAAAAAAAAAAAAA [CACACA_negctrl_site1234]	6.03
TAATTAAAAAATGAATAAATGAATAAATAAATAAAT [CACACA_negctrl_site838]	6.32
TTTTTGTATCCTTTTAATATTAAATAAAAGGAATGT [CACACA_negctrl_site1468]	6.46
TTAATGTTTGAAAGAGTGCACATAACAAAAAAAAAA [GTGCAC_site9623]	9.04
TATGAATATTGCATGTGTACCTATTATCCTTTTAAA [XGTACX_site4311]	6.95
ATAATTATTTTCCCGTGTACTTATTTTTTTCAAGTA [XGTACX_site8843]	7.03
AACAAATTTTTTATTAAACACACAAACATATATATA [CACACA_site8588]	6.84
GCTCATTGAAATTATACACACCAAATATATAAATAT [CACACA_site5385]	6.86
TGTGAATATATCTTTAAAAAGGATAAATAATAATTT [CACACA_negctrl_site507]	6.11
AAAAAAAAAAAGATAAATACAAGTTACACAAAAAAA [GTGCAC_negctrl_site664]	6.38
ACGTTGCGACGCAAGGTGCTTATTTTCTTATAAATA	6.11
AGGGAATATTTTTATGCATGTGCTTACACATTACAA [TGCATGCA_site830]	6.83
AAAAAAAACGGACACACACACATACAAAATATATAT [CACACA_site4910]	6.88
